Laboratory results from the RNAGym collection of RNA variant scans (doi:10.7554/elife.90254).
Read counts are not given, so values of variants with three or more changes are uncertain.

B1: LINE1-full (parent)
chain: UACGUAGGUGGUUUUCCCCUGAUAGUGCUAAGGGGGCCUGGAAGUUUGGACUGGGCAGAGCUCAACACAGCGUGGCAAAGUGGCUGUGGCUAGACUGCCUCUCUGGAUUCCUCGUCACUCAGCAGGGCAUCUCUGAGAGAAAUGCC

Variants of: B1
Assay: self-cleavage, relative activity (ratio to wild type); higher = more cleavage; in vitro, sequencing; the parent is a self-cleaving ribozyme

| Variant | self-cleavage |
| --- | --- |
| C17A U20C A65G U91A A107G A140G | 0 |
| C17A A57G G105A A124C U143C | 1.57 |
| C19A U108C U143C | 2.53 |
| C19U U62C U112C U134A | 0.08 |
| U20C A79G A94G | 0 |
| C19U G44A U132C | 0.91 |
| U15G A78G U85A | 0.27 |
| C18U U104A A141U | 1.13 |
| U15C U108C U132C | 2.19 |
| C18A U87C C146A | 0.23 |
| C17U G58U U85C U102C | 0 |
| C19U A57G G74A | 0.81 |
| U20A A124U U132C | 1.56 |
| C18A A43G U62C U115C A129G | 0 |
| U20A G72A U87A A124U | 0.08 |
| C16U U45C A117U A141G | 0.54 |
| C17U U39C A42U U132C | 0.48 |
| C16U U23A U85C U112C | 0.12 |
| U20A A31U A43G U52A G86U | 0.09 |
| C16A A92G A140G | 0.05 |
| C19U U47C G49U | 1.53 |
| U20A U104C U112C U134A U143C | 0 |
| C17U U20C U26G G93C A94G | 0 |
| C18A U20C U115A | 0.98 |

| Variant | self-cleavage |
| --- | --- |
| U20A A64G U102C | 0.34 |
| C17A G93U U102C | 0.04 |
| U20C A77U G125U A136G | 1.42 |
| C17U A22G G41A | 0.61 |
| C18U C76A U115C | 2.09 |
| U15C U102C A138G | 1.72 |
| C19G U20G A59G G86A A141U | 0.21 |
| C19U C51A A57C U143C | 0.09 |
| C16U A42G A69G U112A | 0.28 |
| U20A U62C A141G | 0 |
| U20A A50G U108C | 2.42 |
| U20C A78G A124U A129G | 1.15 |
| U20C A117C U143C | 1.02 |
| C19U A77G U85A | 0.1 |
| U20A U46C A57G A77G | 1.53 |
| U20A C56A U132C | 0.03 |
| U20C A57G A65G G86U U115C U130C | 0 |
| U20A A65G C98G | 0.14 |
| C19U U62C A129C | 0 |
| U20A U62A U109A A124G A129U | 0 |
| C19U A30G A65G | 0.06 |
| C19U G44U A107G | 0 |
| U20A U23C U45C A50G | 0.92 |
| U20C A43G A65U C98A U100C U102C U119C A141G | 0 |

| Variant | self-cleavage |
| --- | --- |
| C16U U20C A121C | 1.36 |
| U20C A42G G127A | 1.77 |
| U20C A22U U81C | 1.95 |
| U20A C51U G125U | 0.89 |
| C16U A24U A59G A79G U132A | 0.27 |
| C19U G80U A138U | 1.17 |
| U20C A141G C146U | 1.73 |
| U20A G34A A77G | 2.07 |
| U20C A31U U62C A78C | 0.21 |
| U20C A77C A129G | 0 |
| C18A U26A U62G G72A C113A | 0.07 |
| U15C U119C A138G | 1.53 |
| U20C A57U A107G | 0.24 |
| U20C A129G U132C | 0.75 |
| U20A G48C A107G | 2.55 |
| C18A U47C A92G | 0.1 |
| U20C A67G A79G U132C | 0 |
| U20A G88A A140G | 0.03 |
| U20A U47A A78G U96A | 0.03 |
| C19U A65G A138G | 0.09 |
| C18U U23A U96G U143C | 0 |
| U20A U104A U109A A140G | 0.16 |
| U20A U45A U100C A140G | 1.5 |
| C17U U23C A31C A140G | 1.09 |

| Variant | self-cleavage |
| --- | --- |
| U20A G34U G82A | 1.98 |
| U20C A67G U102C A124G | 0 |
| C17U A30G U47C U115A A138G | 1.28 |
| U20A U62C A129G | 0 |
| C17U G60U U112C A142G | 0.09 |
| U20A A92G U104A U132C | 0.16 |
| C19U U20C U45A U132C | 0.8 |
| U20A G36C A65U | 0.14 |
| U20A U104A U132A | 1.02 |
| C17U A22G G137A A138G | 0.92 |
| C18A A43G A57C A136G | 0 |
| C17A U85C G137A | 0.2 |
| C16U G33A U73A U104C | 0.58 |
| U20A U52G A77U | 0.41 |
| C18U U20A U47C C99U A136G | 0.94 |
| U20A U26C U62C | 0.14 |
| C19U G35A U85C U87C C123U | 0.02 |
| U15C U102A A142G | 2.86 |
| U20A U115A A129G | 1.45 |
| C19A U52A U130C | 1.61 |
| C19U U85C U104A | 0.15 |
| U20A G33U A64U U112A U132A | 0.41 |
| U20C A42G C56U | 0.25 |
| U20A U62C G86A A124U | 0.05 |

| Variant | self-cleavage |
| --- | --- |
| U20A U45G G60A G135U | 0.1 |
| U20A U112C U115A | 0.69 |
| U20A A117U A141G | 0.71 |
| U20C A30G U73C | 1.84 |
| U20A U62C A65G A94U A117G | 0 |
| C19U A31U G82A A94G U104C C110U | 0.11 |
| U20A G127C U132C C146A | 2.3 |
| C18U C37U A42G U115C | 0.52 |
| U20C A42U A94C A140G | 0 |
| C19U G40U U100A | 0.53 |
| C19G U62C A64G A92G U96A | 0 |
| C18U U39A A78U | 1.87 |
| U20C A24G U108C | 2.76 |
| U20C A77U U132C | 2 |
| C16U A59U A69U U143A | 0.03 |
| U20A G114A U130A | 0.67 |
| U20A A67G C76U U109C A129U | 0.31 |
| U20C A50G A129U | 0.79 |
| C17U U81A A141G | 1.47 |
| C19A G40U U45C U96C A129G U132C | 0 |
| U20C A30G U52C C71U | 0.63 |
| C19U U39G U62A U85A | 0.09 |
| C19U U29C A59G A138U | 0 |
| C16U G80U G127A C146U | 1.4 |

| Variant | self-cleavage |
| --- | --- |
| U20A U62C A136G A142G | 0.06 |
| U20A U112C U119A | 1.54 |
| C16U U52C A57U | 0.09 |
| C18G U20C A77G G127A | 1.94 |
| U20C A69G G82A | 1.01 |
| C19U U45C U100A | 0.34 |
| C16U U62C U100C | 0.09 |
| U20C A42U U62C A69C U85A C145U | 0 |
| U20C A42G U81C U109A A141G | 1.31 |
| C17U U91C U96C | 0 |
| U20A C113U G122U | 1.1 |
| U20C A31U U52A A69U U119C U130A | 0.19 |
| U20C A30G A57U U109A | 0.13 |
| C18A A31G U91C A117G U132C | 0 |
| C16A U26C A107U | 1.55 |
| U20C A77G A78G U112A | 1.71 |
| C19A U100C A141G | 2.84 |
| U20C C56U U85A U87A | 0.03 |
| U20A A31G U45G A59C A121U A129C | 2.3 |
| U20A C37U G89U A92G | 0.03 |
| C17A U26C C38A A94G | 0.15 |
| U20C A65G C71U | 0.03 |
| C19U U26C A124U | 0.82 |
| C18U A43G U143C | 0.22 |

| Variant | self-cleavage |
| --- | --- |
| C17G U20C G75C | 1.34 |
| C18A C76U U87A | 0.13 |
| C17U A24G U91C A136G | 1.15 |
| C16U U29C A43G C63U A64G A79G | 0.12 |
| U20C A107G U112C | 1.1 |
| U20A A42G U143C | 1.99 |
| C17A U23C U87C A142G | 0.82 |
| U20A G75U U81A | 0.6 |
| U20A A43G A69G | 0.67 |
| C18A U130A A140U | 1.46 |
| U20A A67U A77G U96A U102C A124G | 0 |
| U15G A30G U108C | 0.57 |
| C18U U108C U130C | 1.29 |
| U20A U45C U87A | 0.07 |
| U20A A43G U134C | 1.45 |
| U20A A42G U46C A138G | 1.48 |
| U20C A59G A117G | 0 |
| C17U A30U A77G U112C | 1.84 |
| U20C A94C A124G | 0 |
| U20A C28U A31U U130C | 2.87 |
| U20A C38U A65G | 0.02 |
| C18U U20C U134C | 1.74 |
| C16U A124U U132C | 1.59 |
